# PubChem BioAssay AID602179 (National Center for Advancing Translational Sciences (NCATS), 2012)
# Among all 390,000 compounds or so, about 360 (0.092%) were called active. Inconclusive results, whose numbers are uncertain, are shown with a selection of clear calls. Calls follow the shape of the dose curve; as a rule, active = well fitted inhibition curve with a large enough effect; inconclusive = small, poorly fitted or top-dose-only effect; inactive = no such curve, though single readings can be large or run the other way. Where the call is inconclusive, the potency comes from a doubtful curve fit.
# Biological target: Isocitrate dehydrogenase [NADP] cytoplasmic (Homo sapiens) (UniProt O75874)
# Test: qHTS for Inhibitors of mutant isocitrate dehydrogenase 1 (IDH1): qHTS; also: nearly all actives have a fitted effect of over 65% in size
# Details: IDH1-R132H enzyme, NADPH consumption, diaphorase/resazurin fluorescence; series mostly up to 76.6 µM; activity change, negative = inhibition: at the top concentration
# Procedure, shortened: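 IDH1-R132H (0.5 ug/mL dispensed) in pH 7.5 Tris buffer was preincubated 30 min with compound, then given a substrate mix of 0.016 mM NADPH and 2 mM alpha-KG for 80 min at room temperature; remaining NADPH was read by diaphorase/resazurin fluorescence.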
# % is scaled to controls: 0 for no effect and ±100 for the full control effect; potency is read from the fitted curve at half-maximal effect; tags tell the direction and shape of the fitted curve.
SMILES,Potency,"activity change, negative = inhibition"
COc1cccc(-c2nc3c(c(C)nn3-c3ccccc3)c3cc(OC)c(OC)cc23)c1,"inconclusive: 44.7 µM [inhibitor, partial curve, poor fit]",–
CN(C1=C(N2CCCCC2)C(=O)c2ccccc2C1=O)c1ccccc1,"inconclusive: 16.5 µM [inhibitor, single point]",–
CC(=O)c1cccc(NC(=O)c2nc(-c3ccc(C)cc3)n3c2CCCCC3)c1,–,inactive: -1.64%
COCCN=C1NN=C(c2ccc(NC(C)=O)cc2)CS1,"inconclusive: 44.7 µM [inhibitor, partial curve, poor fit]",–
Nc1nc(Nc2ccc(Cl)cc2)nc(NCc2ccco2)c1[N+](=O)[O-],"inconclusive: 58.5 µM [inhibitor, single point]",–
CCCCCCCCOC(=O)c1c(CSC(=N)N)n(C)c2cc(Br)c(OC(C)=O)cc12,"inconclusive: 58.5 µM [inhibitor, single point]",–
CCCSC1=C(C#N)C(c2cccnc2)C(C(=O)OCC)=C(c2ccccc2)N1 (centres undefined),"inconclusive: 46.5 µM [inhibitor, partial curve]",–
C=CC(=O)N1C/C(=C/c2ccc(Cl)cc2)C(=O)/C(=C\c2ccc(Cl)cc2)C1,"inconclusive: 52.1 µM [inhibitor, single point]",–
C=CS(=O)(=O)N(Cc1ccccc1Br)[C@H](CO)Cc1ccccc1,"inconclusive: 44.7 µM [inhibitor, partial curve, poor fit]",–
COc1cc(NS(=O)(=O)c2ccc(N/C=C(\C#N)c3nc4cc(Cl)ccc4o3)cc2)nc(OC)n1,"inconclusive: 52.1 µM [inhibitor, single point]",–
Cc1cc(NC(=S)Nc2cccnc2)ccc1Br,–,inactive: -4.12%
CC[C@]12c3[nH]c4ccc(Cl)cc4c3CCN1C(=O)[C@@H](CC(=O)NC/C=C(\C)CCC=C(C)C)C[C@@H]2C(=O)N1CCN(C(=O)C2CC2)CC1,"inconclusive: 35.5 µM [inhibitor, partial curve]",–
Cc1noc(NS(=O)(=O)c2ccc(NC(=O)c3ccoc3C)cc2)c1C,–,inactive: -2.36%
NNC(=O)CNC(c1ccccc1)c1cc(Br)ccc1NC(=O)c1ccc(Br)cc1 (centres undefined),"inconclusive: 50.1 µM [inhibitor, single point]",–
Cc1ccc(C2=NOC(=O)/C2=C\C=C\c2ccccc2)cc1,"inconclusive: 50.1 µM [inhibitor, single point]",–
CCCNC(=O)CN1CCN(c2ncc(NC(=O)c3ccc(Cl)cc3)cc2C(=O)O)CC1,"inconclusive: 63.1 µM [inhibitor, single point]",–
N#CC1=C(N)C2=CCCC[C@H]2[C@H](c2ccccc2)C1(C#N)C#N,active: 23.3 µM,–
COC(=O)c1c(NC(=O)/C=C/C(=O)O)sc(C)c1-c1ccc(C)c(C)c1,"inconclusive: 58.5 µM [inhibitor, single point]",–
C[C@H]1CN([C@@H](C)CO)C(=O)c2cccc(NC(=O)Nc3ccc(C(F)(F)F)cc3)c2O[C@@H]1CN(C)S(=O)(=O)c1ccccc1,"inconclusive: 44.7 µM [inhibitor, partial curve]",–
Cc1ccc2nc3c(nc2c1C)C(O)=C3O,"inconclusive: 46.5 µM [inhibitor, partial curve]",–
CCN1C(=O)CS/C1=N\S(=O)(=O)c1ccc(Cl)cc1,–,inactive: 27.2%
O=C(COC(=O)c1ccccc1[N+](=O)[O-])c1ccc2c(c1)OCO2,–,inactive: 4.19%

SMILES,Potency,"activity change, negative = inhibition"
Cc1ccc(C(=O)CNc2ccc(Cl)cc2)cc1,"inconclusive: 65.6 µM [inhibitor, single point]",–
CCOC(=O)c1ccc(N2C(=O)c3n[nH]c(-c4cccs4)c3C2c2ccc(O)c(OC)c2)cc1 (centres undefined),"inconclusive: 25.1 µM [inhibitor, single point]",–
COc1ccc(N(C(=O)C2COc3ccccc3O2)C(C(=O)NC2CCCCC2)c2ccccc2)cc1OC (centres undefined),active: 5.21 µM,–
Cc1ccc(-n2c(SCc3ccccc3F)nc3[nH]ncc3c2=O)cc1C,"inconclusive: 44.7 µM [inhibitor, single point]",–
O=C(C[C@H]1C/C=C\C[C@H](NC(=O)OCC2c3ccccc3-c3ccccc32)C(=O)OC[C@H](Cc2ccccc2)NC1=O)N[C@H](CO)Cc1ccccc1,–,inactive: 3.27%
COc1cccc(NC(=O)c2cnn(-c3ccccc3)c2C)c1,–,inactive: 13.6%
O=C1NC[C@@H](Cc2cccc3ccccc23)N(CCCCC2CCCCC2)C1=O,"inconclusive: 31.6 µM [inhibitor, partial curve]",–
CCCC(NC(=O)CCc1c(C)c2cc3c4c(oc3c(C)c2oc1=O)CCCC4)C(=O)O (centres undefined),active: 41.4 µM,–
Cc1ccc([C@H]2C[C@@H](n3cc(-c4ccc(F)cc4)nn3)[C@H](O)CN2Cc2cccs2)cc1,–,inactive: 8.88%
COC(=O)[C@@]12CCCCN1[C@H](c1ccc(-c3ccc4c(c3)OCO4)c(OC)c1)[C@@H]1C(=O)N(C)C(=O)[C@@H]12,"inconclusive: 12.6 µM [inhibitor, single point]",–
CC1CCCCC1NC(=O)COC(=O)COc1ccccc1F (centres undefined),–,inactive: -3.26%
CCCC1CCC(c2ccc(C(N)=O)cc2)CC1 (centres undefined),–,inactive: 0.82%
O=C(NC1CCCC1)C(c1ccco1)N(C(=O)c1ccco1)c1ccccc1 (centres undefined),"inconclusive: 44.7 µM [inhibitor, single point]",–
N#CC1=C(N)C(C#N)(C#N)[C@H](c2ccsc2)[C@H]2COCC=C12,"inconclusive: 26.1 µM [inhibitor, partial curve]",–
CC1=NOC(=O)/C1=C\c1ccc(-c2ccc(Cl)cc2Cl)o1,"inconclusive: 44.7 µM [inhibitor, partial curve, poor fit]",–
COc1ccc(Br)c(C(=O)Nc2cc3c(cc2N2CCCCC2)n(C)c(=O)c(=O)n3C)c1,"inconclusive: 44.7 µM [inhibitor, partial curve, poor fit]",–
CCN(CC)c1ccc(C=C2SC(=S)NC2=O)cc1,"inconclusive: 58.5 µM [inhibitor, single point]",–
CCN(CC)C(=O)C1CCCN(c2ncnc3c2c(-c2ccccc2)cn3-c2cccc(C)c2)C1 (centres undefined),"inconclusive: 50.1 µM [inhibitor, single point]",–
c1cncc(-c2nc(N3CCCCCC3)c3ccccc3n2)c1,"inconclusive: 58.5 µM [inhibitor, single point]",–
CC(C)N1C(=O)/C(=C/c2nc3ccccc3c(=O)n2-c2ccccc2)c2ccccc21,"inconclusive: 58.5 µM [inhibitor, single point]",–
O=S(=O)(NC(=S)NC1CCCCC1)c1ccccc1,–,inactive: -6.98%
Cc1ccc(N2C(=O)CCSC23C(=O)N(Cc2ccc(F)cc2)c2ccccc23)cc1 (centres undefined),"inconclusive: 50.1 µM [inhibitor, single point]",–

SMILES,Potency,"activity change, negative = inhibition"
C=CCN1C(=O)C(Cc2cccc(Cl)c2)SC1=Nc1ccc(C(=O)O)cc1 (centres undefined),"inconclusive: 52.1 µM [inhibitor, partial curve]",–
Cc1cc(O)c(-c2n[nH]c3c2C(c2cccc(O)c2)N(Cc2cccnc2)C3=O)cc1Cl (centres undefined),"inconclusive: 16.5 µM [inhibitor, full curve, poor fit]",–
c1ccc(-c2c(-c3ccccc3)n(Cc3ccco3)c3ncnc(NCCCn4ccnc4)c23)cc1,active: 29.3 µM,–
CCc1cc2c(=O)n(Cc3ccco3)c(SCC(=O)N3CCCc4ccccc43)nc2s1,"inconclusive: 13.1 µM [inhibitor, partial curve, poor fit]",–
O=C(NC1CCCCC1)C(c1ccc(F)cc1)N(C(=O)c1cccs1)c1ccc2c(c1)OCO2 (centres undefined),"inconclusive: 9.27 µM [inhibitor, full curve]",–
Cc1ccc(N(C(=O)c2ccco2)C(C(=O)NC2CCCC2)c2ccco2)c(C)c1 (centres undefined),"inconclusive: 11.7 µM [inhibitor, full curve]",–
O=C(Cn1ncc2c3ccccc3n(Cc3cccc(Cl)c3)c2c1=O)N1CCCCCC1,–,inactive: 0%
CC1CN(C(=O)c2ccc(NS(=O)(=O)c3ccc(C(C)(C)C)cc3)cc2)CC(C)O1 (centres undefined),"inconclusive: 18.5 µM [inhibitor, partial curve, poor fit]",–
CCc1nnc(N2C(=O)c3ccc(Oc4ccc([N+](=O)[O-])cc4)cc3C2=O)s1,"inconclusive: 52.1 µM [inhibitor, partial curve, poor fit]",–
Cc1ccc(Cl)cc1NC(=O)CCS(=O)(=O)c1ccc(Br)s1,"inconclusive: 50.1 µM [inhibitor, single point]",–
Cc1c(NC(=O)CSc2nnc(-c3cccc(Cl)c3)o2)c(=O)n(-c2ccccc2)n1C,–,inactive: -0.126%
O=C(CSc1nc2[nH]c(=O)cc(O)c2s1)Nc1nccs1,–,inactive: 2.56%
CCOc1ccc(N(CC(=O)Nc2cccc(F)c2)S(=O)(=O)c2c(C)noc2C)cc1,–,inactive: -16%
CC(=C/c1ccccc1)/C=N/Nc1nc(N2CCCCC2)nc(N2CCCCC2)n1,–,inactive: 3.49%
CCOC(=O)c1ccc(NC(=O)C(=O)NCc2ccco2)cc1,"inconclusive: 28.2 µM [inhibitor, single point]",–
COc1cc(NC2c3ncccc3C(=O)N2Cc2ccco2)cc(OC)c1 (centres undefined),"inconclusive: 50.1 µM [inhibitor, single point]",–
CS(=O)(=O)Nc1ccc(C(=O)Nc2cccc([N+](=O)[O-])c2)cc1,–,inactive: 4.17%
Cc1nn(-c2ccccc2)nc1C(=O)Nc1nnc(C(F)(F)F)s1,–,inactive: 18.5%
CCOC(=O)c1ccc2c(c1)n(CC)c(/C=C/N(C)c1ccccc1)[n+]2CC,–,inactive: 8.7%
COc1ccc(C2c3c(-c4cc(Cl)c(C)cc4O)n[nH]c3C(=O)N2Cc2cccnc2)cc1OC (centres undefined),"inconclusive: 58.5 µM [inhibitor, single point]",–
